Laboratory results taken from PMC4336329 (PLoS ONE, 2015).
About 14,000 (4.5%) of roughly 310,000 compounds showed an effect of 50% or more. The effect is printed as a negative number. The list shows a part of the results.

Target: human ether-à-go-go-related gene (hERG) potassium channel (human, UniProt Q12809)
Experiment: primary screen, population patch clamp on CHO cells stably expressing hERG
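Further: peak tail current of the secondary pulse compared with the same well before compound.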

human ether-à-go-go-related gene (hERG) potassium channel, sequence (Q12809 whole entry, looked up): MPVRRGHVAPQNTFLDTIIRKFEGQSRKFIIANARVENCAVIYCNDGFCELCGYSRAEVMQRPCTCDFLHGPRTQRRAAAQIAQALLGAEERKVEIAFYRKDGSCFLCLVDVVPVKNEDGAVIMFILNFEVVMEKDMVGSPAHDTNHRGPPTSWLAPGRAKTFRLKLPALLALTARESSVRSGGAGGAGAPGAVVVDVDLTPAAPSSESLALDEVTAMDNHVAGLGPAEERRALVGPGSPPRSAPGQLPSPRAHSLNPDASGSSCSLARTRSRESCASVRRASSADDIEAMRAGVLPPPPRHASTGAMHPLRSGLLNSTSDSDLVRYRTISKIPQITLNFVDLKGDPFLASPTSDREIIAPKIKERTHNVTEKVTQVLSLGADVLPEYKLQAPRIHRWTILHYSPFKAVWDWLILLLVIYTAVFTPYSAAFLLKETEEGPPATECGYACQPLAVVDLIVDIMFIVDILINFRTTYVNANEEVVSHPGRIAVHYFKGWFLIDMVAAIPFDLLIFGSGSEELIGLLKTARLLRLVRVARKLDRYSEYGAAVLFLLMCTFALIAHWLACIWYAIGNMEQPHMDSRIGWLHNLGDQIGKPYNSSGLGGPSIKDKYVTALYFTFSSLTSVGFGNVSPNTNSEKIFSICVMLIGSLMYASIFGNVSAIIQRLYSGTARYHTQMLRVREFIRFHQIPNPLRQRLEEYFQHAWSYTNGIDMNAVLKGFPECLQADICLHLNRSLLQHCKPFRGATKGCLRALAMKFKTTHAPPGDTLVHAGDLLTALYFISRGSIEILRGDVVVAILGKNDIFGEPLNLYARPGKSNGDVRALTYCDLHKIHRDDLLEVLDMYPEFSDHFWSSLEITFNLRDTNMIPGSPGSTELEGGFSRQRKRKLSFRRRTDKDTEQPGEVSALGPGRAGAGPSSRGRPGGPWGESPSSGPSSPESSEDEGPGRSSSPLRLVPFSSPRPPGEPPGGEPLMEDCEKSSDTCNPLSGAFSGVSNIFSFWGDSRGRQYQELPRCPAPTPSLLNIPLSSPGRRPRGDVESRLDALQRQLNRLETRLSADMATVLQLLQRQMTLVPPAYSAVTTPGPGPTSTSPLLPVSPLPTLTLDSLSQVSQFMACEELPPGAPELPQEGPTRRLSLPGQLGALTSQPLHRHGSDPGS

Row | Compound | hERG current change (%, negative = inhibition) at 10uM
1 | CCOC(=O)CSc1nnc(-c2ccoc2C)n1-c1ccc(C)cc1 | -19.3%
2 | CCS(=O)(=O)N1N=C(c2cccc(NS(C)(=O)=O)c2)CC1c1ccc(C)cc1 (centres unmarked) | -73.9%
3 | CCCCOC(=O)c1ccc(NC(=O)c2cnccn2)cc1 | 21.4%
4 | Cl.O=C(NCCOC(=O)C1COc2ccccc2O1)c1cccnc1 (centres unmarked) | 15.9%
5 | CN(C)CCCN(C(=O)c1ccc(S(=O)(=O)N2CCCCC2)cc1)c1nc2cc3c(cc2s1)OCO3.Cl | -70.4%
6 | CCC(C)C(NC(N)=O)C(=O)Nc1ccc(C(=O)OC)cc1 (centres unmarked) | 16.8%
7 | CC1(C)CC[C@]2(CO)[C@@H](O)C[C@]3(C)C(=CCC4[C@@]5(C)CC[C@H](O)C(C)(C)C5CC[C@]43C)[C@@H]2C1 (some centres unmarked) | 19.4%
8 | Cc1ccc(-n2c(C)nn(-c3ncc(C(F)(F)F)cc3Cl)c2=O)cc1 | -1.19%
9 | C=CCNC(=S)N1CCN(c2ncc3c(=O)c(C(=O)O)cn(CC)c3n2)CC1 | 2.8%
10 | COc1ccc(-c2nnnn2-c2ccc(F)cc2F)cc1 | 10.7%
11 | COC(=O)c1sc(NC(=O)c2ccco2)c(C#N)c1C | 14.5%
12 | C=C(C)[C@@H](O)COc1c2ccoc2cc2oc(=O)ccc12 | 7.7%
13 | Cl.c1ccc(NCc2cccc3ccccc23)nc1 | -1.63%
14 | Clc1ccc(-c2csc(-c3cccnc3)n2)s1 | 15.1%
15 | O=C(c1ccco1)N1CCN(S(=O)(=O)c2ccccc2[N+](=O)[O-])CC1 | -11.4%
16 | O=c1c2ccccc2nnn1Cc1ccccn1 | 11.6%
17 | Cc1ccc([C@@H]2[C@@H]3C(=O)N(C)C(=O)[C@@H]3[C@]3(C)C(=O)N(CC4CC4)CC(=O)N23)o1 | 1.54%
18 | Cc1ccc(C)c2[nH]c(=O)c(CN(Cc3ccco3)C(=O)Nc3ccccc3)cc12 | 1.89%
19 | Cc1nc2ncnn2c(C)c1CCC(=O)NCc1ccccc1 | -6.07%
20 | Nn1c(SCc2ccc([N+](=O)[O-])cc2)nc2ccccc2c1=O | 17.8%
21 | CCOC(=O)c1oc2ccc(S(=O)(=O)n3nc(-c4ccc(C)cc4)cc3N)cc2c1C | 9.07%
22 | CN(CCOC(=O)c1ccc2c(c1)OCO2)C(C)(C)C.Cl | 2.97%

Row | Compound | hERG current change (%, negative = inhibition) at 10uM
23 | Nc1ccc(C(=O)N/N=C/c2cccc(Oc3ccccc3)c2)cc1 | -10.7%
24 | CCC1(C)Cc2c(sc3c2c(=O)n(C)c2nnc(SCCc4ccccc4)n32)CO1 (centres unmarked) | -4.55%
25 | CN1C(=O)NC(c2ccccc2)(C(F)(F)F)S/C1=C(/C#N)c1nnc(N2CCOCC2)n1-c1ccccc1 (centres unmarked) | -30.3%
26 | CC(=O)C1=C(C)N2CCN=C2S1 | 12.7%
27 | COc1ccccc1N(CC(=O)NCc1ccco1)C(=O)CCC(=O)Nc1ccccn1 | 11.6%
28 | O=c1c2[nH]c3ccccc3c2ncn1C1CCCCC1 | -4.08%
29 | O=C(O)c1ccc(Oc2ccc(S(=O)(=O)c3ccc(C(=O)O)c(C(=O)O)c3)cc2)cc1 | 9.42%
30 | CCOc1ccc(/C=C2\SC(N3CCCCC3)=NC2=O)cc1 | -22.9%
31 | CN(c1ccc(C(=O)N2CCCCC2)cc1)S(C)(=O)=O | 10.6%
32 | NC(=O)c1ccsc1NC(=O)COC(=O)CNC(=O)c1cccc([N+](=O)[O-])c1 | -6.9%
33 | CCOC(=O)NC(=O)COC(=O)c1ccc(O)cc1 | -6.29%
34 | COc1ccc2c(c1OC)C(=O)N(c1ccc(F)cc1)C2 | 8.71%
35 | Cc1c(C(c2ccc(C(=O)O)cc2)c2c(C)n(C)n(-c3ccccc3)c2=O)c(=O)n(-c2ccccc2)n1C.Cl | 19%
36 | CC(=O)NC1CC2CCCC(C1)N2S(=O)(=O)c1cccc(F)c1 (centres unmarked) | 7.44%
37 | O=S(=O)(/N=C/c1c(O)ccc2ccccc12)c1cccs1 | -0.442%
38 | CCC1(C)CC(C(CC(=O)O)c2ccc(C)cc2)CCO1 (centres unmarked) | 7.43%
39 | O=C(Nc1ccccc1N1CCOCC1)C1=COCCO1 | 2.46%
40 | O=C(CN1CCOCC1)Nc1cccc(Cl)c1Cl | -20.3%
41 | CCN(CC)S(=O)(=O)c1ccc(N2C(=O)Nc3ccccc3N2O)cc1 | 12.1%
42 | Cc1cccc(C)c1NC(=O)CN(C)C(=O)c1ccccc1OCc1ccc(F)cc1 | 0.721%
43 | C=CCOC(=O)c1ccc(-n2cnc(C)n2)nc1 | 0.952%
44 | CCCc1c(C(=O)N2CCN(c3ccccc3OC)CC2)cnn1-c1ccccc1 | 4.94%
